The values that follow come from PMC6667905.

Chains of the proteins cited; added tags and fusions are not shown. Lines headed by an entry give the natural chain unless they say otherwise; changes in a name come on top. A line that says so, or that is headed by a name, gives the form on record, which may keep a tag or linker.
UniProt O64629: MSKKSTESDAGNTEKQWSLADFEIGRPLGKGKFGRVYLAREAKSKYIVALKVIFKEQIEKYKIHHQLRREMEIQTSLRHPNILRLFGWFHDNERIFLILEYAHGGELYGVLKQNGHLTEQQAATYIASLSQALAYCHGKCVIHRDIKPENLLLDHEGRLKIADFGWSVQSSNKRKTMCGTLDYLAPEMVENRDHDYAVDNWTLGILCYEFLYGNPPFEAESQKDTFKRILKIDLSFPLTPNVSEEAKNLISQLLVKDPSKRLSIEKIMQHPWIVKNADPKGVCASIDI
Arabidopsis thaliana Aurora 2 in a plant BIFC vector (Q683C9, form named): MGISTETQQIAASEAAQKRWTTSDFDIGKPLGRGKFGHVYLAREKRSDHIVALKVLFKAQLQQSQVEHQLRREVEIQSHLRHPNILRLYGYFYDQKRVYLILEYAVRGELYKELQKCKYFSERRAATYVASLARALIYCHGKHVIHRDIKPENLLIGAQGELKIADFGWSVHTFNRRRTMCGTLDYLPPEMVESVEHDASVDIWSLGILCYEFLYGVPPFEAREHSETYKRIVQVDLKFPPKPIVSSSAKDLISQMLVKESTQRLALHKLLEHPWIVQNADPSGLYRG
UniProt Q9JN11: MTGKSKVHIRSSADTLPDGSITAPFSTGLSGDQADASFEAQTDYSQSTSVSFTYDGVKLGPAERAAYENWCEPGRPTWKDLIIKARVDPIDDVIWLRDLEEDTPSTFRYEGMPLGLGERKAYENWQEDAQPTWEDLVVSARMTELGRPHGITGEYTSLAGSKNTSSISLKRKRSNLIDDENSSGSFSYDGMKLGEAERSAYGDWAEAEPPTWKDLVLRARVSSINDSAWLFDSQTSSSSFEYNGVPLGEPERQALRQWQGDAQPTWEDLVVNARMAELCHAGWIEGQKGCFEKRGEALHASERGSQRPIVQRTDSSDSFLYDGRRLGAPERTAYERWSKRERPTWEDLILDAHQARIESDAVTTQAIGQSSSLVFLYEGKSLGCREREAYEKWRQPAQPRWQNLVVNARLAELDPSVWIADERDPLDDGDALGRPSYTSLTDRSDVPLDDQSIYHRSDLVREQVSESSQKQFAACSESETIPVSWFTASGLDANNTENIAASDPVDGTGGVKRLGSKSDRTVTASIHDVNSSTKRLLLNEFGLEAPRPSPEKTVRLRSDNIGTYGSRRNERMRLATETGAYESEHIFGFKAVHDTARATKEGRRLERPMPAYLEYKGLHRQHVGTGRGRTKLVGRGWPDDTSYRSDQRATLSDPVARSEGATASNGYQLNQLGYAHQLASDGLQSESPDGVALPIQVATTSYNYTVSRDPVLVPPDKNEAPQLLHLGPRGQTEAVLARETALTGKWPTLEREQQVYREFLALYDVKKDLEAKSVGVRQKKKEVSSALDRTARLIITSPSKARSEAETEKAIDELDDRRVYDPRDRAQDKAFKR

No constants are given. Whether binding was seen depends on the method and setting. For some of these results: Binding seen in cells or lysates may run through a third protein. Some binding calls cover weakened binding; strength is not graded here. For some of these results: Sequences can lack the tags named with a protein.

Experiment [1] addresses T1, Ipl1 in a plant BIFC vector (yeast) (UniProt P38991).
T1 sequence: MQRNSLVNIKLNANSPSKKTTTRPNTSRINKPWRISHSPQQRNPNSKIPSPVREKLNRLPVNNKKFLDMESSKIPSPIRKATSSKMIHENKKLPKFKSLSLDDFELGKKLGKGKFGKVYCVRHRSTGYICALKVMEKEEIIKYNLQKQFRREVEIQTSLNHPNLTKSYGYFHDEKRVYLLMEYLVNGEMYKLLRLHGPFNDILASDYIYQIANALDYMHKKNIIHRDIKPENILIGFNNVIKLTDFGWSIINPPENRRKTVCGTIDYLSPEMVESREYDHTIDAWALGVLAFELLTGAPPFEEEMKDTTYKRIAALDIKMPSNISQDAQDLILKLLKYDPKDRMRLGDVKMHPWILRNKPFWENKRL
Put plainly: split reporter; BIFC in A. thaliana protoplasts transformed with plant BIFC vectors (35S promoter; nYFP 1-154, cYFP 155-238); 18 h at 25°C in the dark; confocal microscopy.

The target of experiment [2] is T2, Dam1 in a plant BIFC vector (yeast) (UniProt P53267).
T2 sequence: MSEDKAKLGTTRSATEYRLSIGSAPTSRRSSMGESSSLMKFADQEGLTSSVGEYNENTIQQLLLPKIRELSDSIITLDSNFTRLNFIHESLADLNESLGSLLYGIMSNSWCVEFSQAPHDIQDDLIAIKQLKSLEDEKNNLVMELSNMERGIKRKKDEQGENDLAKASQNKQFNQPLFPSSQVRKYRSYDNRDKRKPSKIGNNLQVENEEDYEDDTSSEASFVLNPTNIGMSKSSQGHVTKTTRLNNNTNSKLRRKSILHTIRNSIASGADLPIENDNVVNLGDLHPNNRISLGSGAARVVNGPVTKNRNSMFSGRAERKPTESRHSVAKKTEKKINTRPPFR
The description is as above.

The target of experiment [3] is T3, Arabidopsis thaliana Aurora 1 in a plant BIFC vector (Arabidopsis thaliana) (UniProt Q9M077).
T3 sequence: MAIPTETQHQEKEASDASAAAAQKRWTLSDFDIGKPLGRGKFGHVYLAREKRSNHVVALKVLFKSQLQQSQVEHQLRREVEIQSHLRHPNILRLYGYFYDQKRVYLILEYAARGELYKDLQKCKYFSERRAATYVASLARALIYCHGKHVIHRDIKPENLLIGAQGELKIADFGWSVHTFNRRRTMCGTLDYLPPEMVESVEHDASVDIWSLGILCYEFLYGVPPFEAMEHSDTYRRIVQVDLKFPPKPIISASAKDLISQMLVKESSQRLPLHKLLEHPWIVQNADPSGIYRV
The description is as above.

For experiment [4], the target named is Arabidopsis thaliana Aurora 3 in a plant BIFC vector (Arabidopsis thaliana) (UniProt O64629). The description is as above.
The target of experiment [5] is Arabidopsis thaliana Aurora 2 in a plant BIFC vector (Arabidopsis thaliana) (UniProt Q683C9). The description is as above.
In experiment [6] the target is T4, GST-tagged Ipl1 (yeast) (UniProt P38991).
T4 sequence: T1 sequence
Put plainly: pull-down; GST-tagged proteins immobilized on Glutathione HiCap Matrix; purified His-tagged VirD5 in binding buffer (50 mM NaH2PO4, 150 mM NaCl, pH 7.2, 0.1% Triton X-100), 2 h at room temperature; Western blot with anti-His HRP antibody; both purified. (Immunoblotting shows a protein as a band on a membrane.)

In experiment [7] the target is GST-Ipl1NT, the N-terminal part of Ipl1 (1-118 aa) (yeast) (UniProt P38991). The experiment is described as above.
The target in experiment [8] is GST-Ipl1CT, the C-terminal catalytic part of Ipl1 (101-367 aa) (yeast) (UniProt P38991). Described as above.
Experiment [9] concerns the target T5, Ipl1 (yeast Aurora kinase) fused with the N-terminal part of Venus (VN173) (yeast) (UniProt P38991).
T5 sequence: T1 sequence
Put plainly: split reporter; BIFC in wild-type yeast cells (BY4743); VC173 on the N-terminus of VirD5 or its truncations, VN173 on the C-terminus of the kinetochore protein; 30°C, induction 1 h in MY medium lacking methionine; confocal microscopy.

In experiment [10] the target is T6, Dam1 (yeast outer kinetochore/microtubule-associated protein) fused with the N-terminal part of Venus (VN173) (yeast) (UniProt P53267).
T6 sequence: T2 sequence
The experiment is described as above.

With “VirD5NT in a plant BIFC vector (from UniProt Q9JN11 1-505) (domain or fragment)”, the binding entry in [1] and in experiment [2] was “binds” throughout.

On to “VirD5 in a plant BIFC vector (fused to a half of YFP) (from UniProt Q9JN11 1-833)”, for which the binding result in experiment [3], in experiment [4] and in experiment [5] was “binds” throughout.

As to “His-tagged VirD5 (from UniProt Q9JN11 1-833)”, the values for the binding entry in experiment [6], in experiment [7] and in experiment [8] were “binds”, “no binding” and “binds”, respectively.

With “VirD5NT, the N-terminal 505 aa of VirD5, fused with VC173 (from UniProt Q9JN11 1-505) (domain or fragment)”, the binding result in experiment [9] and in [10] was “binds” each time.
